# Whole data set: some 33,000 sequences, median “E-score (-0.5 to 0.5)” near -0.012, cut for the highest 2% near 0.27. The list shows a part of the results.
# Molecular target: T1, Vhr1 (UniProt P40522)
# T1 sequence: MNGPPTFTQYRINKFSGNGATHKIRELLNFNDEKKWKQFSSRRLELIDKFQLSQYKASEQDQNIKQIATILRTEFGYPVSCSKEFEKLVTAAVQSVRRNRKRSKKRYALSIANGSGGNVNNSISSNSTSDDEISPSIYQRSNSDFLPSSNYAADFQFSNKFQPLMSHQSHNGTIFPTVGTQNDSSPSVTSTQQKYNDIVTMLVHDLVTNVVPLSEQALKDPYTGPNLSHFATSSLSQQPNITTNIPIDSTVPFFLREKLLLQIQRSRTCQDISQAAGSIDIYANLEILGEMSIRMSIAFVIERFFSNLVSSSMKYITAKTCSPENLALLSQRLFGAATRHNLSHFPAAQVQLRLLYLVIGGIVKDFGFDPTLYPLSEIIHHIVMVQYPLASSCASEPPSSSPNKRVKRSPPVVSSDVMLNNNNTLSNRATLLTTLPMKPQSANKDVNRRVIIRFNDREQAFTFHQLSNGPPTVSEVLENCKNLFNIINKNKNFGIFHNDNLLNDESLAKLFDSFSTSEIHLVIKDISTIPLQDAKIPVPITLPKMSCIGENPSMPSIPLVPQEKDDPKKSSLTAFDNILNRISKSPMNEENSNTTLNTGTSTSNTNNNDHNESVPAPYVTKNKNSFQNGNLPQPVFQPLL
# Test: PBM E-score (8-mer binding enrichment) (E-score (-0.5 to 0.5)); higher = stronger / more preferred TF binding; most listed sequences are background and not binding sites
# Conditions: protein concentration: 200 nM; construct: GST-full length
# In short: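 Yeast transcription factors, full-length or as DNA-binding domains, were expressed with a GST tag using PURExpress in vitro transcription/translation. At about 100-200 nM they were applied to universal all-10-mer Agilent arrays, double-stranded by primer extension on fresh or once-stripped slides. Fluorescent anti-GST detected bound protein, and masliner normalised the scans. E-scores for ungapped eight-base words, pooled with reverse complements, came from the Universal PBM Analysis Suite.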
row,Sequence,PBM E-score
1,CAGTATAC,0.231
2,CAAATACG,-0.187
3,CGGGGTTC,0.0432
4,GGGGGAAA,-0.0722
5,CTAAATGC,-0.00679
6,AAAGGGAA,-0.125
7,AAATCATG,0.29
8,CCGTAAAG,-0.182
9,GGCGCCCA,0.0282
10,CTGGTGGA,-0.0102
11,GGAGCCCC,-0.144
12,CAAAGAGC,-0.135
13,CTTTTCAA,-0.129
14,ATTCAGCA,0.0595
15,CGCCGAGC,0.059
16,CCTTGTGC,-0.0588
17,TGCCCCAA,0.0393
18,CGTAGACA,-0.33
19,GAGGTTAC,0.0302
20,GAAAATAC,-0.00171
21,ATGCGAAG,-0.137
22,CCAAAATA,-0.00401
23,AATCGATG,0.107
24,AAAGGTAC,-0.0793
25,TCCCCCGA,0.00078

row,Sequence,PBM E-score
1,CATGTCAC,0.0859
2,ATACTGAG,0.302
3,CAACAGAA,-0.128
4,ATTAGAAG,0.0266
5,AGGTTGCA,0.0347
6,ATCCGAGG,0.197
7,GATGGTTA,0.191
8,CAGACAAG,-0.0442
9,AAATCGAA,-0.079
10,CCAGGAGG,0.00619
11,CAGGCCAG,-0.0406
12,ACGTTCGG,-0.08
13,GCACGAGC,0.126
14,GCATAGAC,-0.104
15,AGAAACAT,-0.0987
16,AGGGACCA,-0.117
17,GCTCCGCC,0.118
18,ACTGTTAG,0.0101
19,AGTCTACC,-0.0695
20,GCGTACTA,-0.0551
21,ATGAGCAA,0.0779
22,AAGACGAT,-0.164
23,AGCGCGCC,-0.0121
24,GACACCCC,-0.0121
25,AGGACAGC,-0.0735

row,Sequence,PBM E-score
1,CACTAACC,0.0442
2,ACAAGTGA,-0.154
3,CGAAGTGA,0.108
4,AACGATCT,-0.0872
5,ATACAGGA,0.0562
6,GCTACTCA,0.271
7,AGCGCACT,-0.205
8,ACCATCGG,0.064
9,ACCGCGTA,0.0793
10,CCAACGGA,-0.00786
11,AGAAACTC,-0.051
12,CCGGTCAC,0.12
13,CTCAACTC,-0.0523
14,CCAAGGTC,-0.0964
15,GCGGTCTA,0.0229
16,AGCAATTG,-0.308
17,ACGCAGCT,-0.045
18,GGAACCAC,0.214
19,CATCCAGG,0.0327
20,ATATACTC,0.191
21,CACTATAA,-0.121
22,AAGCCGGC,-0.0871
23,AGCGTATA,0.179
24,CCTTGTAC,-0.106
25,CCCCATAC,0.0656

row,Sequence,PBM E-score
1,AGCTCAGG,0.107
2,AGTTTTGG,-0.143
3,GTGACCTA,-0.16
4,AAATCCGA,0.0516
5,CGTGGTAG,0.0791
6,CGCTGATC,0.115
7,TAACCGAA,-0.128
8,ATCTGATC,0.085
9,GGTGAATA,-0.00242
10,AAACAGAC,0.034
11,ACGGACTA,-0.0237
12,CCGTCGCC,0.0171
13,CGCTTAAG,-0.225
14,AGGGCATC,-0.246
15,CATGCGTA,0.182
16,CCAAGAAA,-0.0428
17,TGCACGCA,-0.0577
18,AATACTAA,-0.0324
19,ATCAAAAT,-0.0589
20,GGTAGGAA,-0.029
21,AACGTTCA,-0.331
22,AAGGGCCG,-0.242
23,GGTACCCA,-0.0268
24,CTCGGGCA,0.0687
25,CTTAGTGA,0.151

row,Sequence,PBM E-score
1,AGACCATA,0.18
2,CGAGCCGA,0.203
3,GCAAGTCC,-0.144
4,AACATGCC,0.0507
5,CCGCTACA,0.0275
6,ATTACCAA,0.0709
7,CAACTACA,0.177
8,CCCTGGGA,-0.168
9,GCCAGCCA,0.0444
10,ATGTACCA,0.155
11,CGGTGGAC,0.0511
12,GACATGGA,0.136
13,CCTGGAGA,-0.0828
14,GATGTGAC,0.227
15,GATCGATC,0.0343
16,CACTCGAG,-0.029
17,CCTCCTCC,-0.0203
18,GCTTACAA,-0.0422
19,AGCCTCGA,0.088
20,AAAGGGAT,-0.232
21,AGAAAGCC,-0.141
22,ACCCGCGG,0.275
23,CTCTCCTC,-0.179
24,CGTTCTAC,-0.0859
25,CAAGAAAA,-0.133

row,Sequence,PBM E-score
1,TACCCGCA,0.238
2,CAATGGAG,-0.0266
3,AGTCACCG,0.418
4,AGAAACCC,-0.00112
5,TAATGTAA,0.14
6,AGCAGCCA,-0.128
7,GACTTGAA,-0.152
8,CCCTGAAG,-0.187
9,ACAATCGT,0.0768
10,GGTACTAA,0.166
11,GTGGCTAA,0.173
12,ACGATCCC,0.0196
13,CCAAGCGG,0.0627
14,ACCTGATA,0.145
15,CCCGTTCA,-0.0417
16,CCAACAGG,-0.123
17,CTATATAC,0.241
18,AAAGGGGG,-0.193
19,TTGACAAA,-0.298
20,CGTCCATA,0.0491
21,GCGGTATA,0.107
22,GGCCACCA,0.0226
23,CGGAATTA,-0.193
24,AGAGCAAG,0.013
25,ACACGAGT,0.188

row,Sequence,PBM E-score
1,AGAGATCC,-0.0438
2,CTAGCCGC,0.0646
3,CCACTTAC,0.175
4,GGCGCGCC,0.152
5,ACTACAAT,0.277
6,ATTGCAAG,-0.178
7,AGATCACA,-0.03
8,AAGGCTAT,-0.0977
9,AGGCAGAA,-0.00902
10,CATGTGGC,0.108
11,CCCGAAAG,-0.0441
12,CGATCTAC,-0.0502
13,GTTGCTAA,0.15
14,CTGTGAAG,-0.0687
15,CCCTGTGA,0.0176
16,CGAACAGC,-0.0471
17,CCTGTTAC,0.0285
18,ATTTCCCA,-0.0342
19,ATAACACG,0.154
20,AGGCATCC,-0.147
21,GGAAGTTA,0.00048
22,AATCAAAC,0.0462
